Test results reported in PubChem BioAssay AID504339 (National Center for Advancing Translational Sciences (NCATS), 2011).
Screen size: about 390,000 compounds; about 17,000 (4.4%) were called active. The inconclusive results got no clear call from the source; some entries with a clear call stand among them for comparison. Calls come from the whole dose curve; as a rule, active = well fitted inhibition curve with a large enough effect; inconclusive = small, poorly fitted or top-dose-only effect; inactive = no such curve, though single readings can be large or run the other way. Potencies beside an inconclusive call are fits to weak or partial responses and may not hold up.
% is set by controls: 0 for no effect and ±100 for the full control effect; potency is the fitted concentration of half-maximal effect; tags give direction and shape of the fitted curve.
Note: nearly all actives have a fitted effect of over 50% in size.

Each compound was assayed against Lysine-specific demethylase 4A (Homo sapiens) (UniProt O75164) (assay: qHTS Assay for Inhibitors of JMJD2A-Tudor Domain). Conditions: AlphaScreen JMJD2A-Tudor / H3K4me3 peptide binding; activity change, negative = inhibition: at 114 µM (top of the series).
Chain of UniProt O75164 (O75164 whole entry, looked up, the tested form may be a part): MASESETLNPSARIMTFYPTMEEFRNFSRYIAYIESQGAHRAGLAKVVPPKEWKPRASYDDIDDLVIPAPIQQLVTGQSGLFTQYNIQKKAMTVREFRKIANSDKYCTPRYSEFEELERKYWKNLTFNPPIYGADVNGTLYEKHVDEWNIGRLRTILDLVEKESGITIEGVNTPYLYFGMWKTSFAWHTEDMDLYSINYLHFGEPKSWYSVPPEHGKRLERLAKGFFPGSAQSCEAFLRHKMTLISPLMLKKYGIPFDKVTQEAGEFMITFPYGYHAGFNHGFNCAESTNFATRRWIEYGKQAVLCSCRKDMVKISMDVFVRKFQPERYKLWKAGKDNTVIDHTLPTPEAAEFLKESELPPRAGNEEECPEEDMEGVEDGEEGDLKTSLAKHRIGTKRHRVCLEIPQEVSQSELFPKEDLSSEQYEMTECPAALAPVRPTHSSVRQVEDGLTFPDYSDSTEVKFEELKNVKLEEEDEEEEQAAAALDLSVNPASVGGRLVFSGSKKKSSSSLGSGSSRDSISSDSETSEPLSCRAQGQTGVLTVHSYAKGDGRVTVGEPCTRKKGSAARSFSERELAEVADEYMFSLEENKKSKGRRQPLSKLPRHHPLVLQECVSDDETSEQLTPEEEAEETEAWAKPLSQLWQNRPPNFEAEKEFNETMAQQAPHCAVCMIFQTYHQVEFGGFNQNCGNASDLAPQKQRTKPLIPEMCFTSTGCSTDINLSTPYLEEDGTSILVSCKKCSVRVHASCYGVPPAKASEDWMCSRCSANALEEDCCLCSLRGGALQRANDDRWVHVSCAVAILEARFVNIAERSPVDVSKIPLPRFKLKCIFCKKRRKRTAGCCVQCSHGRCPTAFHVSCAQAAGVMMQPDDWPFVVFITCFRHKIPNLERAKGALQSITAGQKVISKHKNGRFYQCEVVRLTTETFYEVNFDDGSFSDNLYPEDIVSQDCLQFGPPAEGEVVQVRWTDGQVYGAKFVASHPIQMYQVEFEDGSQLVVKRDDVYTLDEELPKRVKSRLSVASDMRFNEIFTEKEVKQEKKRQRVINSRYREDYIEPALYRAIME
In the case of `Cc1ccc2c(c1)C(c1ccccc1)N(C(=O)c1ccc(Br)o1)CC(=O)N2` (stereo not drawn), the Potency was inconclusive: 56.2 µM [inhibitor, partial curve].
In the case of `Cc1ccc(NC(=O)CN2CC(C)SC2=NC2CCCCC2)cc1` (stereo not drawn), the Potency was “inactive”.
`CC(=O)Nc1ccc(S(=O)(=O)NCc2ccc(C)n2C)cc1` was tested, and the Potency was “inactive”.
In the case of `CN1CCN(C(=S)Nc2ccc([N+](=O)[O-])cc2)CC1`, the Potency was “inactive”.
`CC1=C(C(=O)Nc2cc(C(=O)N(C)Cc3ccccc3)ccc2C)SCCO1` was tested, and the Potency was inconclusive: 89.1 µM [inhibitor, partial curve, poor fit].
`Cc1nn(-c2ccc(N3CCOCC3)nn2)c(C)c1CCC(=O)Nc1ccc(F)cc1` was tested, and the Potency was inconclusive: 50.1 µM [inhibitor, partial curve].
In the case of `COc1ccc(NCc2nnc(SCC(=O)Nc3cccc(C)c3)o2)cc1`, the Potency was inconclusive: 79.4 µM [inhibitor, partial curve].
`c1ccc2oc(SCc3cn4ccsc4n3)nc2c1` was tested, and the Potency was inconclusive: 89.1 µM [inhibitor, single point].
With `O=S(=O)(c1nccs1)N1CCN(c2nc(-c3cccs3)nc3ccccc23)CC1` the Potency was “inactive”.
`Cc1ccc(C(=O)OCC(=O)NC(=O)c2cccn2C)cc1` was tested, and the Potency was “inactive”.
`COc1cccc(NC(=S)N2CCC(c3ccc(C)cc3)C2)c1` (stereo not drawn) was tested, and the Potency was “inactive”.
In the case of `COc1cccc(CN2C(=O)[C@@H]3Cc4c([nH]c5ccccc45)C(C)(C)N3C2=O)c1`, the Potency was inconclusive: 31.6 µM [inhibitor, partial curve].
`COc1cc(/C=N/N2CCN(c3ccccc3)CC2)ccc1OC(C)=O` was tested, and the Potency was inconclusive: 56.2 µM [inhibitor, partial curve].
For `COC(=O)c1c(=O)n(O)c2ccc(OC)cc2[n+]1[O-]`, the Potency was inconclusive: 39.8 µM [inhibitor, full curve, poor fit].
With `CC(C)c1ccc(-c2c(NCCc3ccccc3)c(=O)c2=O)cc1` the Potency was inconclusive: 31.6 µM [inhibitor, partial curve].
With `COc1ccc(C(=O)/C=C(/C)N(C)C)cc1` the Potency was active: 39.8 µM.
`Nc1ccc(S(=O)(=O)NC(Cc2ccccc2)C(=O)O)cc1` (stereo not drawn) was tested, and the Potency was “inactive”.
With `COc1ccc(NC(=O)c2nn(C)c3c2CSc2ccc(C)cc2-3)cc1OC` the Potency was inconclusive: 44.7 µM [inhibitor, partial curve].
`CCOC(=O)CN1NC2(CCC(C)CC2)NC1=S` (stereo not drawn) was tested, and the Potency was active: 28.2 µM.
For `Cc1cc(-c2n[nH]c(=S)n2/N=C/C(Cl)=C/c2ccccc2)n[nH]1`, the Potency was active: 56.2 µM.
For `Cn1c(=O)c2c(nc(CN3CCCCC3)n2CCCc2ccccc2)n(C)c1=O`, the Potency was inconclusive: 89.1 µM [inhibitor, single point].
`CC1CN(Cc2ccccn2)CCC1=O` (stereo not drawn) was tested, and the Potency was “inactive”.
In the case of `COc1ccc(C(=O)Oc2c(OC)cc(C(=S)N3CCOCC3)cc2OC)cc1OC`, the Potency was inconclusive: 56.2 µM [inhibitor, partial curve].
In the case of `Cc1c(C(=O)N(Cc2cccc(Cl)c2)Cc2ccco2)oc2ccccc12`, the Potency was “inactive”.
In the case of `CCn1c2ccc(C)cc2c2nnc(SCCN3CCCCC3)nc21`, the Potency was “inactive”.
For `COc1ccc(C)cc1NS(=O)(=O)c1cc(Br)cc2c1N(C(C)=O)C(C)C2` (stereo not drawn), the Potency was “inactive”.
For `O=c1oc2ccccc2c(Nc2cc3ccccc3cc2O)c1[N+](=O)[O-]`, the Potency was inconclusive: 56.2 µM [inhibitor, partial curve].
For `Cn1c(=O)[nH]c2nnc(-c3ccc(Cl)c(Cl)c3)nc2c1=O`, the Potency was inconclusive: 100 µM [inhibitor, single point].
`C=CCn1c(-c2ccco2)n[nH]c1=S` was tested, and the Potency was active: 10 µM.
With `COc1ccccc1N1CCN(C(CNS(=O)(=O)c2cc(F)ccc2F)c2cccnc2)CC1` (stereo not drawn) the Potency was inconclusive: 63.1 µM [inhibitor, partial curve, poor fit].
`CCCOC(c1ccccc1)(c1ccccc1)C(Oc1nc(C)cc(C)n1)C(=O)O` (stereo not drawn) was tested, and the Potency was “inactive”.
For `O=C(O)CSc1nc2sc3c(c2c(=O)n1Cc1ccccc1)CCCCC3`, the Potency was “inactive”.
For `COc1cccc(/C=C/c2nc3ccccc3c(=O)n2-c2ccc(C)c(C)c2)c1OC`, the Potency was “inactive”.
`CC(=O)Nc1cccc(N=NN2CCOCC2)c1` was tested, and the Potency was “inactive”.
For `C/C(=N\NC(=S)Nc1ccc(C)cc1)c1cccc(N)c1`, the Potency was inconclusive: 56.2 µM [inhibitor, partial curve, poor fit].
`CC(=O)Oc1ccc(C(=O)[C@H]2[C@H]3C(=O)N(c4cccc5ccccc45)C(=O)[C@H]3[C@@H]3C=CC=NN32)cc1` was tested, and the Potency was inconclusive: 56.2 µM [inhibitor, partial curve].
In the case of `COc1ccc(-c2nnc(SCC(=O)Nc3ccc(C)c(Cl)c3)nc2-c2ccc(OC)c(OC)c2)cc1OC`, the Potency was “inactive”.
For `Nc1cc(N)cc(-c2nc3ccccc3o2)c1`, the Potency was inconclusive: 44.7 µM [inhibitor, partial curve].
In the case of `Cc1ccc(Sc2ccc(CN3CCCCC3)cc2[N+](=O)[O-])cc1`, the Potency was active: 35.5 µM.
`CCOC(=O)Cn1c(=O)c2c(nc(N3CCOCC3)n2C)n(C)c1=O` was tested, and the Potency was “inactive”.
`Cc1ccccc1Nc1c(-c2ccc(O)cc2)nc2c(C)cccn12` was tested, and the Potency was inconclusive: 17.8 µM [inhibitor, full curve].
With `Cc1nc2sc(C(c3ccco3)N3CCN(c4cccc(Cl)c4)CC3)c(O)n2n1` (stereo not drawn) the Potency was inconclusive: 89.1 µM [inhibitor, partial curve].
`CCCCn1c(NS(=O)(=O)c2ccccc2)c(S(=O)(=O)c2ccc(C)cc2)c2nc3ccccc3nc21` was tested, and the Potency was “inactive”.
For `COc1ccc(N2CCN(C(c3cccc(OC)c3OC)c3nnnn3C3CCCC3)CC2)cc1` (stereo not drawn), the Potency was active: 44.7 µM.
For `Cc1onc(-c2ccccc2)c1C(=O)N1CCOC12CCN(c1cccc(F)n1)CC2`, the Potency was “inactive”.
For `Cc1cccc(C)c1NC(=O)c1nc(SC(C)C)ncc1Cl`, the Potency was “inactive”.
In the case of `CC(C)C[C@H](NC(=O)c1[nH]cnc1C(=O)N[C@@H](Cc1ccccc1)C(=O)OCc1ccccc1)C(=O)OCc1ccccc1`, the Potency was inconclusive: 25.1 µM [inhibitor, partial curve].
`CCOc1ccc(-c2c(C)sc3nc[nH]c(=O)c23)cc1` was tested, and the Potency was active: 89.1 µM.
`O=C(COc1ccc([N+](=O)[O-])cc1)Nn1cnnc1` was tested, and the activity change, negative = inhibition was inactive: -20.3% [at 11.4 µM].
`Cc1nc(-c2ccc(Cl)cc2)sc1C(=O)CBr` was tested, and the Potency was inconclusive: 22.4 µM [inhibitor, full curve].
`O=C(CNC(=O)c1ccco1)NCC(=O)OCc1ccc(Cl)cc1Cl` was tested, and the Potency was “inactive”.
For `CC1CN(c2ccc(Oc3ccccc3)cc2)c2nc3c(c(=O)[nH]c(=O)n3C)n2C1` (stereo not drawn), the activity change, negative = inhibition was inactive: -14.4% [at 11.4 µM].
For `O=C1Nc2ccc(Br)cc2/C1=C/C(=O)c1ccccc1`, the Potency was inconclusive: 44.7 µM [inhibitor, partial curve].
For `O=C(CN1CCN(c2ccc(O)cc2)CC1)NCC(=O)Nc1ccc(F)c(F)c1F`, the Potency was active: 44.7 µM.
In the case of `CCN(CC)c1ccc(/C=N/Nc2nc3ccccc3[nH]2)c(O)c1`, the Potency was active: 50.1 µM.
With `Cc1cc(C(=O)N/N=C/c2ccncc2)c2ccccc2n1` the Potency was inconclusive: 10 µM [inhibitor, partial curve].
With `COc1ccc(N2CCN(C(=O)c3ccccc3N(C)S(=O)(=O)c3ccccc3)CC2)cc1` the Potency was “inactive”.
For `Cc1onc(-c2ccccc2)c1C(=O)NNC(=S)NC(=O)c1ccc(Cl)cc1Cl`, the Potency was inconclusive: 56.2 µM [inhibitor, partial curve].
`CC(/C=N/NC(=O)c1ccc(CN2c3cccc4cccc(c34)S2(=O)=O)cc1)c1ccccc1` (stereo not drawn) was tested, and the Potency was “inactive”.
With `Cc1c(CNCCCc2ccccc2)c(C(=O)O)c(C)n1Cc1ccccc1` the Potency was inconclusive: 35.5 µM [inhibitor, partial curve].
With `COc1ccc(OC)c(CCNC(=O)c2cc3cccc4c3n2CCS4)c1` the Potency was inconclusive: 39.8 µM [inhibitor, partial curve].
For `COc1ccc(C2=CC(c3ccc(OC)c(OC)c3)n3nnnc3N2)c(OC)c1` (stereo not drawn), the Potency was inconclusive: 63.1 µM [inhibitor, partial curve].
In the case of `CCOc1ccc(-c2nc(C#N)c(N3CCN(Cc4ccccc4)CC3)o2)cc1`, the Potency was inconclusive: 10 µM [inhibitor, full curve].
With `CC(C)C[C@H](N)c1cn([C@@H](Cc2cc3ccccc3[nH]2)C(=O)N2CCNCC2)nn1` the Potency was inconclusive: 70.8 µM [inhibitor, partial curve, poor fit].
`CCOC(=O)C(C)On1c(-c2ccccc2)nc2ccc([N+](=O)[O-])cc21` (stereo not drawn) was tested, and the Potency was inconclusive: 79.4 µM [inhibitor, partial curve].
For `O=C(c1ccco1)N1CCN(Cc2nnc(-c3ccccc3)o2)CC1`, the Potency was “inactive”.
For `CC(C)C[C@@H](CN)NC(=O)c1nc[nH]c1C(=O)N[C@@H](CC(=O)O)C(=O)CNC[C@H](C)NC(=O)c1nc[nH]c1C(=O)N[C@@H](CC(=O)O)C(=O)O`, the Potency was active: 89.1 µM.
For `FC(F)Oc1ccc(NC(=S)Nn2cnnc2)cc1`, the Potency was inconclusive: 89.1 µM [inhibitor, single point].
For `CCOC(=O)c1ccccc1NC(=O)COC(=O)CCNS(=O)(=O)c1ccc(C)c(C)c1`, the Potency was inconclusive: 3.55 µM [inhibitor, single point].
For `Cc1ccc(OS(=O)Nc2cccc3nccnc23)cc1` (stereo not drawn), the Potency was inconclusive: 89.1 µM [inhibitor, single point].
For `O=C(NC(=S)NC1CCCCC1)c1ccc(Cl)cc1`, the Potency was inconclusive: 79.4 µM [inhibitor, single point].
With `CC(=O)Nc1sc(C)c(C)c1C(=O)OC(C)C` the Potency was inconclusive: 39.8 µM [inhibitor, single point].
`Cc1ccc(NC(=O)Cn2nnc(-c3nc(-c4ccncc4)no3)c2N)cc1` was tested, and the Potency was “inactive”.
